The campaign covered roughly 220,000 compounds. About 5,700 (2.6%) were called active. Inconclusive means that the source gave no clear call. Such entries were picked first, then a sample of the others. The call rests on the fitted dose curve; in most records, active means well fitted inhibition curve with a large enough effect; inconclusive means small, poorly fitted or top-dose-only effect; inactive means no such curve, though single readings can be large or run the other way. A potency beside an inconclusive call is a rough fit, not a confirmed value.
What follows are compounds tested against Lysine-specific demethylase 5B (Homo sapiens) (UniProt Q9UGL1) (assay: Primary screen for KDM5B Histone Demethylases FDH-coupled qHTS). Conditions: FDH-coupled NADH fluorescence (FDH is formaldehyde dehydrogenase); activity change, negative = inhibition: at 57.7 µM (top of the series) unless noted.
Chain of UniProt Q9UGL1 (Q9UGL1 whole entry, looked up): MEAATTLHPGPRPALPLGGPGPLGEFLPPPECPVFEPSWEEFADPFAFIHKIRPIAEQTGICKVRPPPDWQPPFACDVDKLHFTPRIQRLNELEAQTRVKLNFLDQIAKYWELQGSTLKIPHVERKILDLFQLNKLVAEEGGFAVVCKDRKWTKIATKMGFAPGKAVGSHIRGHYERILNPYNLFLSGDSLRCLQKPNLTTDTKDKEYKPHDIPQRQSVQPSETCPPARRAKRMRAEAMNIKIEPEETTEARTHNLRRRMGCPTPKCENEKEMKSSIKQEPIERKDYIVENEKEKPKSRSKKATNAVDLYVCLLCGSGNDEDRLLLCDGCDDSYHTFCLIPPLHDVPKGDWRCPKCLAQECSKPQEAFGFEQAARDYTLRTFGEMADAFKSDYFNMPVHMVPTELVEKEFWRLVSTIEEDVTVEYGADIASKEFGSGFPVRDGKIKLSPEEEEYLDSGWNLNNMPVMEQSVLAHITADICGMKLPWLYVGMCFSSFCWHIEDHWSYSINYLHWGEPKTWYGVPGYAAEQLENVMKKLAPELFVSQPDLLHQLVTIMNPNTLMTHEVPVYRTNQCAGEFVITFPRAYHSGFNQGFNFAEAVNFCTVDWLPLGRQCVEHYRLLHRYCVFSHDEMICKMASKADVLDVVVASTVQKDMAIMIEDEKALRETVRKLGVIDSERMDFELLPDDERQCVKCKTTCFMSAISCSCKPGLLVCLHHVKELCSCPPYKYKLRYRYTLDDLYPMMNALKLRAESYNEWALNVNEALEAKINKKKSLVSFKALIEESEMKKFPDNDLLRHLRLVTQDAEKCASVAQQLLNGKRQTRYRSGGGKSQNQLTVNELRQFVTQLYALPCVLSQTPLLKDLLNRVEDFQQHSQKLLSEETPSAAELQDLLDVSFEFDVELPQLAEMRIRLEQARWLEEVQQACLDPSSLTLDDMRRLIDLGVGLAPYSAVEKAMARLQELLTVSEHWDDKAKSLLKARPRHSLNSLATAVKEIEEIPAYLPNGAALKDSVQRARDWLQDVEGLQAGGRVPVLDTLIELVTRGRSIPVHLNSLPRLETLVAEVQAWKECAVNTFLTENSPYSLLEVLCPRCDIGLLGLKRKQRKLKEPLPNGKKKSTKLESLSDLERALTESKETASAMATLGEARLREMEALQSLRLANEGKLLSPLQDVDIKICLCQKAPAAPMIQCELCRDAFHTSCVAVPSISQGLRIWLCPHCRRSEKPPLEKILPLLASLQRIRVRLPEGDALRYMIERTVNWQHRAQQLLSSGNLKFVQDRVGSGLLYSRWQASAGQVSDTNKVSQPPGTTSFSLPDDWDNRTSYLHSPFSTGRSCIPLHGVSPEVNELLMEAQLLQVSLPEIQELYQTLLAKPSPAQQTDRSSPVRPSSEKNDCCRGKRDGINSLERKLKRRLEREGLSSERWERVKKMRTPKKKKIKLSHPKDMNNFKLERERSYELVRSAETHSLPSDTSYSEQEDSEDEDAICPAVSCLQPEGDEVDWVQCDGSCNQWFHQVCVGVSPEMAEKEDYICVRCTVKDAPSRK
Method in brief: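 Here, H3K4me3 peptide (12.5 µM in substrate mix) is demethylated by KDM5BΔAP, 200 nM final, after 10 min compound exposure. Formaldehyde product is coupled through FDH (0.25 U/mL in mix) to NADH fluorescence; 30-min ΔRFU feeds dose-response curves.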
For `CN(C)C[C@@H]1CN(Cc2ccccn2)C[C@H]1NC(=O)c1cc(F)ccc1Cl`, the Potency was inconclusive: 20 µM [inhibitor, partial curve].
`O=C(NCCOc1ccccc1)c1ccc2c(c1)OCCN(c1ccccc1)C2` was tested, and the Potency was inconclusive: 31.6 µM [inhibitor, single point].
In the case of `Cc1c(Cl)cccc1NC(=S)NCCSc1ccc(Cl)cc1`, the “activity change, negative = inhibition” value is reported as inactive: -3.71%.
`COc1cc(CNc2ccc(N3CCOCC3)c(C(=O)O)c2)cc(Br)c1OCC(N)=O` was tested, and the Potency was inconclusive: 35.5 µM [inhibitor, single point].
With `O=C(O)C1(Oc2ccc3ncccc3c2)CCN(c2cnccn2)CC1` the Potency was inconclusive: 20 µM [inhibitor, partial curve, poor fit].
`COc1cccc(-c2noc(CCCc3nc(-c4cccnn4)no3)n2)c1` was tested, and the “activity change, negative = inhibition” value was inactive: -2.87%.
For `O=C(NCc1ccccc1)c1cccc(NC(=O)N2CCSc3ncccc32)c1`, the Potency was inconclusive: 28.2 µM [inhibitor, partial curve, poor fit].
`CSc1ncc(C(=O)NCc2ccccc2Cl)c(C)n1` was tested, and the “activity change, negative = inhibition” value was inactive: -0.913%.
For `CC(C)(C)NC(=O)COc1ncnc2ccccc12`, the “activity change, negative = inhibition” value was inactive: -4.36%.
With `O=C(CSc1nc(-c2ccccc2)cc(=O)[nH]1)Nc1ccccc1F` the Potency was inconclusive: 2.82 µM [inhibitor, partial curve, poor fit].
With `COc1ccc(-c2cnc(NCc3ccc(C)cc3)n2C)cc1` the Potency was inconclusive: 2.51 µM [inhibitor, full curve, poor fit].
With `O=C(c1ccc2nccn2c1)N1CCN(c2ccc(F)cc2)CC1` the Potency was inconclusive: 25.1 µM [inhibitor, partial curve, poor fit].
For `O=C(CSc1nc2ncccc2[nH]1)NC1CCCCC1`, the “activity change, negative = inhibition” value was inactive: -13.9%.
With `COc1cc(CNC2CCCc3ccccc32)cc(OC)c1` (stereo not drawn) the “activity change, negative = inhibition” value was inactive: -23.4%.
In the case of `Cc1ccc(C(=O)NC[C@H]2O[C@@H](CC(=O)N3CCN(c4ccccn4)CC3)[C@H](O)[C@@H]2O)cc1`, the “activity change, negative = inhibition” value is reported as inactive: -28.9%.
In the case of `COc1ccc(Nc2nc(-c3ccc(NC(C)=O)cc3)cs2)cc1`, the Potency is reported as inconclusive: 39.8 µM [inhibitor, single point].
`O=C(Nc1ccccc1)O[C@@H]1CO[C@H]2[C@@H]1OC[C@@H]2NS(=O)(=O)c1cccc2cccnc12` was tested, and the “activity change, negative = inhibition” value was inactive: -31.2%.
In the case of `Cc1ccccc1CNC(=O)c1cnc2ccccc2n1`, the “activity change, negative = inhibition” value is reported as inactive: -9.05%.
`CC(C)NC[C@H]1O[C@@H](CO)[C@@H](O)[C@H]1N(C)CCN(C)C` was tested, and the Potency was inconclusive: 22.4 µM [inhibitor, partial curve].
For `CCN1CCN(CC(=O)Nc2ccc(C(C)=O)cc2)CC1`, the Potency was inconclusive: 15.8 µM [inhibitor, partial curve, poor fit].
For `Cc1ccc(-c2cc3c(=O)n(CCNC(=O)c4cccc(Cl)c4)ccn3n2)c(C)c1`, the Potency was active: 28.2 µM.
For `O=C(C=C(Sc1ccccc1)Sc1ccccc1)C(F)(F)F`, the “activity change, negative = inhibition” value was inactive: -27.5%.
With `COc1ccc2nc3n(c2c1)[C@@H](CNCc1ccc(C(F)(F)F)cc1)COC3` the Potency was inconclusive: 56.2 µM [inhibitor, single point].
With `COCCN1CCCCCC(O)c2cc(C(=O)N3CCOCC3)ccc21` (stereo not drawn) the Potency was inconclusive: 20 µM [inhibitor, partial curve, poor fit].
In the case of `O=C(/C=C/Nc1ccc2ccccc2c1)C(F)(F)F`, the Potency is reported as inconclusive: 25.1 µM [inhibitor, partial curve, poor fit].
With `O=C(c1csc2nc(-c3cccc(C(F)(F)F)c3)cn12)N1CCN2CCCC2C1` (stereo not drawn) the Potency was inconclusive: 15.8 µM [inhibitor, partial curve, poor fit].
`O=C(CC1C(=O)NCCN1Cc1ccc(F)c(F)c1)NC1CCC1` (stereo not drawn) was tested, and the Potency was inconclusive: 20 µM [inhibitor, partial curve, poor fit].
In the case of `CC(C)N1C[C@H](O)C[C@H]1c1nnc2n1CCN(C(=O)c1nn(C)c3ccccc13)C2`, the Potency is reported as inconclusive: 31.6 µM [inhibitor, single point].
`CC(=O)Nc1ccc(NC(=O)Cn2c(=O)ccc3cc(S(=O)(=O)N4CCC(C)CC4)ccc32)cc1` was tested, and the “activity change, negative = inhibition” value was inactive: 26.3%.
With `CC(=O)Nc1ccc(OC/C=C/c2ccccc2)cc1` the “activity change, negative = inhibition” value was inactive: 5.09%.
In the case of `CS(=O)(=O)Oc1ccc2cc(-c3ccccc3)c(=O)oc2c1`, the Potency is reported as inconclusive: 31.6 µM [inhibitor, partial curve, poor fit].
In the case of `CC(C)c1ccc(/C=C(/CC(=O)O)c2nc3ccccc3o2)cc1`, the Potency is reported as inconclusive: 28.2 µM [inhibitor, single point].
For `COc1cccc(NC(=O)C2CCN(c3cc(C)nc4c(-c5ccc(Cl)cc5)c(C)nn34)CC2)c1`, the Potency was inconclusive: 1 µM [inhibitor, full curve, poor fit].
In the case of `Cc1ccc(NC(=O)C(c2ccccc2)n2cnc3c2c(=O)n(C)c(=O)n3C)cc1` (stereo not drawn), the “activity change, negative = inhibition” value is reported as inactive: -7.67%.
In the case of `COc1ccc2cc(C(=O)NCc3ccco3)[nH]c2c1`, the Potency is reported as inconclusive: 39.8 µM [inhibitor, partial curve, poor fit].
With `CCc1ccccc1-n1c2c(cc(-c3nc(-c4ccc(Cl)cc4)cs3)c1=O)C(=O)CC(C)(C)C2` the Potency was inconclusive: 12.6 µM [inhibitor, partial curve, poor fit].
`CN(CCC#N)C(=O)CSc1ncc(-c2ccc(Cl)cc2)o1` was tested, and the “activity change, negative = inhibition” value was inactive: 11.9%.
`CCN1c2cc(C(=O)NCCC3=CCCCC3)ccc2C(=O)N2CCCCC21` (stereo not drawn) was tested, and the Potency was inconclusive: 28.2 µM [inhibitor, partial curve, poor fit].
With `COc1ccc(Cc2nc3ccc(C(=O)NCCc4ccccc4)cc3o2)cc1` the Potency was inconclusive: 39.8 µM [inhibitor, single point].
With `CN1C(=O)CC(C(=O)O)C12CCN(Cc1ncccn1)CC2` (stereo not drawn) the Potency was inconclusive: 15.8 µM [inhibitor, partial curve, poor fit].
In the case of `CC(C)OCc1ccc(CNC(=O)CC(C)c2ccccc2)cc1` (stereo not drawn), the “activity change, negative = inhibition” value is reported as inactive: 33.1%.
For `Cc1ccc(-c2cn3cccnc3n2)cc1NC(=O)Cc1ccccc1`, the Potency was inconclusive: 1 µM [inhibitor, full curve, poor fit].
`Cc1cc(CN(Cc2cc(C)c(O)c(C)c2)C2CCCCC2)cc(C)c1O` was tested, and the Potency was inconclusive: 31.6 µM [inhibitor, partial curve, poor fit].

Source: PubChem BioAssay AID1347165 (National Center for Advancing Translational Sciences (NCATS), 2019)
Further: nearly all actives have a fitted effect of over 70% in size.
Potency means the concentration at half of the fitted maximal effect; tags describe the fitted curve by direction and shape.
Wherever activity change, negative = inhibition is given: 0% is about no effect.
